Hit rate of the full screen: of about 150,000 compounds, about 180 (0.12%) were called active. Inconclusive means that the source gave no clear call. Such entries were picked first, then a sample of the others. The call rests on the fitted dose curve; in most records, active means well fitted cell-killing curve with a large enough effect; inconclusive means small, poorly fitted or top-dose-only effect, or effect the other way; inactive means flat fitted curve, though single readings scatter. A potency beside an inconclusive call is a rough fit, not a confirmed value.
assay: GF-AFC viability counterscreen for inhibitors of alpha-synuclein gene (SNCA) expression; conditions: HEK-293-SNCA-luc viability, GF-AFC fluorescence, 24 h; activity change, negative = cytotoxicity: at 57.1 µM (top of the series) unless noted; further: nearly all actives have a fitted effect of over 30% in size;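 on activity change, negative = cytotoxicity: 0% = DMSO-treated cells and -100% = medium-only wells without cells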
Summary of the method: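 Cytotoxicity counterscreen: after 24 h compound treatment of genome-edited SNCA-luciferase HEK-293 cells, live-cell protease substrate GF-AFC read by fluorescence after 30 min; activity scaled between DMSO (0%) and medium-only (-100%), curves Hill-fitted.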
Potency means the concentration at half of the fitted maximal effect; tags describe the fitted curve by direction and shape.

| SMILES | Potency | activity change, negative = cytotoxicity |
| --- | --- | --- |
| CN(CC1CCOC1)C(=O)c1cccs1 (centres undefined) | inconclusive: 6.31 µM [cytotoxic, single point] | – |
| NC(=O)c1cnc2n1CCN(C(=O)CCNC(=O)c1ccc(F)cc1)C2 | inconclusive: 31.6 µM [cytotoxic, single point] | – |
| Cc1ccsc1CN1CCCCCCN(C)C(=O)[C@@H]2CCC[C@@H]21 | inconclusive: 5.62 µM [cytotoxic, single point] | – |
| COc1ccccc1-c1cccc(C(=O)N2CCN(C(=O)NC3CCCC3)CC2)c1 | – | inactive: -4.3% [at 12.5 µM] |
| CCOC(=O)C1CCN(C(=O)CC(c2ccc(Cl)cc2)c2cn(C)c3ccccc23)CC1 (centres undefined) | inconclusive: 39.8 µM [cytotoxic, single point] | – |
| CC(C)NC(=O)N(Cc1cccnc1)C1CNC1 | inconclusive: 5.62 µM [cytotoxic, full curve, poor fit] | – |
| CC(=O)Nc1ccc(-n2c(CCC(=O)O)ccc2-c2ccc(C)cc2)cc1 | – | inactive: -1.73% |
| Cc1cc(C)cc(OCC(=O)Nc2ccc(Cl)c(-c3nc4ncccc4o3)c2)c1 | – | inconclusive: 36.7% |
| Cc1ccc(F)cc1S(=O)(=O)NC1CCN(c2ccc(=O)n(CC3CC3)n2)CC1 | – | inactive: -11.5% |
| COc1cccc(-c2cn3cc(C(=O)N4CCN(C)CC4)nc3s2)c1 | inconclusive: 25.1 µM [cytotoxic, single point] | – |
| COc1ccc(CCC(=O)N2CCC[C@H]2c2nc(-c3ccc(OC)cc3)no2)cc1 | inconclusive: 8.91 µM [cytotoxic, partial curve, poor fit] | – |
| CN(C)c1ccc(C(CNC(=O)Cc2ccc(Cl)cc2)N2CCOCC2)cc1 (centres undefined) | – | inactive: 5.92% |
| O=C(NC1CCNC1)C1CCN(c2nc(-c3ccccc3)nc3c2CCC3)CC1 (centres undefined) | inconclusive: 28.2 µM [cytotoxic, single point] | – |
| CN(C)C(=O)c1ccc(-c2ccc3ncnc(NCCN4CCOCC4)c3c2)cc1 | inconclusive: 4.47 µM [rising, full curve, poor fit] | – |
| Cc1c(OCc2cccc(-c3ccc(C(=O)O)cc3)c2)cc2c(c1C)C(=O)C(C1CCCC1)C2 (centres undefined) | – | inconclusive: -55.3% [cytotoxic] |
| O=C(c1ccc(F)cc1)N1CCC(C(=O)N2CCC(N3CCOCC3=O)CC2)CC1 | – | inactive: 6.58% |
| COc1ccc(-c2ccnc3nc(-c4ccco4)nn23)c(F)c1 | – | inactive: 2.07% |
| Cc1ccc(CCNC(=O)CN2C(=O)COc3ccc(S(=O)(=O)N4CCCCC4)cc32)cc1 | inconclusive: 35.5 µM [cytotoxic, single point] | – |
| CS(=O)(=O)N1CCCN(C(=O)c2ccc(C#N)cc2)CCNC(=O)CC1c1ccccc1 (centres undefined) | – | inactive: -9.05% |
| N#Cc1cccc(CN2CCCC(c3nc4ccc(F)cc4c(=O)[nH]3)C2)c1 (centres undefined) | inconclusive: 3.16 µM [cytotoxic, single point] | – |
| O=C(Nc1ccc(Cl)cc1Cl)N1CCc2[nH]c3ccc(F)cc3c2C1 | – | inconclusive: -31.8% |
| COc1ccc(-c2ccc3c(N)c(C(=O)Nc4ccc(C)cc4C)sc3n2)cc1OC | inconclusive: 25.1 µM [rising, partial curve] | – |

| SMILES | Potency | activity change, negative = cytotoxicity |
| --- | --- | --- |
| CCOC(=O)c1ccc(Nc2nc(N)c3cc(OC)c(OC)cc3n2)cc1 | inconclusive: 31.6 µM [cytotoxic, single point] | – |
| CCCc1noc(-c2ccn3c(CNC(=O)c4ccc(OC)cc4)nnc3c2)n1 | – | inactive: 5.94% |
| COc1ccccc1Nc1ccnc(N2CCCC(C(=O)NCc3cccc(F)c3)C2)n1 (centres undefined) | – | inactive: -13.4% [at 12.5 µM] |
| COc1ncccc1-c1ncc2c(n1)OCCN(c1cccc(C(F)(F)F)c1)C2=O | – | inactive: -6.99% [at 87.6 µM] |
| CCOC(=O)c1cccc(CNc2ccc(N(C)C(=O)Nc3ccccc3)cc2)c1 | inconclusive: 0.015 µM [cytotoxic, full curve] | – |
| Cc1oc2ncnc(N3CCCCC3)c2c1C(=O)Nc1cccc(Cl)c1C | inconclusive: 39.8 µM [cytotoxic, single point] | – |
| CS[C@H]1SC[C@@H]2C(=O)N(C)[C@H](C(C)C)C(=O)OC[C@H](NC(=O)c3cnc4ccccc4n3)C(=O)N[C@H](C)C(=O)N(C)[C@@H]1C(=O)N(C)[C@H](C(C)C)C(=O)OC[C@H](NC(=O)c1cnc3ccccc3n1)C(=O)N[C@H](C)C(=O)N2C | active: 0.0192 µM | – |
| O=C(N1CCC(Cc2nc(-c3ccc(F)cc3)no2)CC1)C1(c2ccccc2)CC1 | – | inactive: 4.41% |
| COC(=O)CNC(=O)c1cc(C(C)(C)C)c2cccn2n1 | – | inactive: 0.534% [at 87.6 µM] |
| CCn1cc(-c2ccccc2)cc1C(=O)O | inconclusive: 8.91 µM [rising, partial curve, poor fit] | – |
| c1cc2nc(C3CCN(C4CCCCC4)C3)[nH]c2cn1 (centres undefined) | inactive | – |
| CC(=O)NC(CO)C(=O)N1CCc2onc(-c3cccc4ccccc34)c2C1 (centres undefined) | – | inactive: -11.3% |
| O=C(c1nc2cccnc2n(CCc2ccccc2)c1=O)N1CCN(Cc2ccccc2)CC1 | – | inactive: -0.14% [at 12.5 µM] |
| Cc1cccc(C)c1OCC(=O)N(Cc1ccc(Cl)cc1)CC1CCCO1 (centres undefined) | inconclusive: 31.6 µM [cytotoxic, single point] | – |
| COC(=O)[C@H](Cc1ccc(OC)cc1)NC(=O)[C@H]1CN(S(=O)(=O)c2ccccc2)CCN1C(=O)c1cccs1 | inconclusive: 39.8 µM [cytotoxic, single point] | – |
| COC(=O)C1=C(C)NC(C)=C(C(=O)O[C@@H]2CCCN(Cc3ccccc3)C2)[C@@H]1c1cccc([N+](=O)[O-])c1 | inconclusive: 21.2 µM [cytotoxic, single point] | – |
| CCCCCNC(=O)N1CCC(CN(Cc2ccc(Cl)cc2)Cc2ccc([N+](=O)[O-])s2)C1 (centres undefined) | inconclusive: 42.9 µM [cytotoxic, single point] | – |
| CCc1cccc(C)c1Nc1c(-c2cccc(O)c2)nc2cnccn12 | inconclusive: 31.6 µM [rising, single point] | – |
| O=C(c1cnccn1)N1CCC(Oc2ccccc2-c2nc(-c3ccccc3)no2)C1 (centres undefined) | inconclusive: 31.6 µM [cytotoxic, single point] | – |
| Cc1nc(-c2ccccc2)n(CC(=O)Nc2ccc(Cl)cc2)c(=O)c1CCO | inconclusive: 0.631 µM [cytotoxic, full curve, poor fit] | – |
| CC(C)c1nc2c(c(-c3ccc(O)cc3)n1)CCN(C(=O)c1ccccc1)CC2 | inconclusive: 35.5 µM [cytotoxic, single point] | – |
| COc1ccc(CN2COc3ccc4c(C)cc(=O)oc4c3C2)cc1 | inconclusive: 22.4 µM [rising, single point] | – |

| SMILES | Potency | activity change, negative = cytotoxicity |
| --- | --- | --- |
| CCC(Cn1ccnc1)NC(=O)c1cccc(NCc2ccc(F)cc2)c1 (centres undefined) | – | inactive: -2.89% |
| COc1ccc(CN2C[C@H](O)C[C@H]2c2nc(-c3ccncc3)no2)cc1 | – | inactive: -5.64% [at 87.6 µM] |
| CCOC(=O)CCNC(=O)N1c2ccccc2CC1c1nc(C(C)C)no1 (centres undefined) | inconclusive: 39.8 µM [cytotoxic, single point] | – |
| CSCC(=O)Nc1nn(-c2ccc(F)cc2)c2cccc(N3CCOCC3)c12 | inconclusive: 25.1 µM [cytotoxic, single point] | – |
| COc1ccc(-c2noc([C@@H]3CCCN3C(=O)c3cccc(Cl)c3)n2)cc1 | inconclusive: 20 µM [cytotoxic, partial curve, poor fit] | – |
| CC[C@H]1CN(S(=O)(=O)c2ccc(OC)cc2)CC[C@H]1CC(=O)NCc1ccc(OC)cc1 | inconclusive: 17.8 µM [cytotoxic, partial curve, poor fit] | – |
| Cc1ccc(-n2ncc3c(NCCc4ccccc4)ncnc32)cc1C | inconclusive: 25.1 µM [cytotoxic, single point] | – |
| O=C(c1cc(C(F)(F)F)cc(C(F)(F)F)c1)N1CCC[C@@]2(CCN(c3ccccn3)C2)C1 | inconclusive: 17.8 µM [cytotoxic, partial curve, poor fit] | – |
| COc1ccccc1-c1[nH]nc2ncc(-c3ccccc3)nc12 | inconclusive: 39.8 µM [rising, partial curve, poor fit] | – |
| CC1(C)C[C@H](NCC2CCCCC2)[C@@]2(CCC(=O)N3CCCC3)CC[C@](C)(O)C[C@@H]12 | inconclusive: 39.8 µM [cytotoxic, single point] | – |
| OC1(CN2CCCCC2)CCN(c2cccc(C(F)(F)F)n2)C1 (centres undefined) | – | inactive: 15.8% |
| CCOCCCn1c(SCC(=O)Nc2cccc(OC)c2)nc2ccccc2c1=O | inconclusive: 1.78 µM [cytotoxic, full curve] | – |
| Cc1ccccc1C(=O)NC1CCN(c2cc(-c3cccs3)[nH]n2)C1 (centres undefined) | – | inactive: -9.24% |
| O=C(c1cncc(N2CCCC(CCc3cccc(F)c3)C2)n1)N1CCCCC1 (centres undefined) | inconclusive: 39.8 µM [cytotoxic, single point] | – |
| O=C(c1ccc(C(F)(F)F)cc1)N1CCn2c(nnc2-c2ccncc2)C1 | – | inactive: 4.52% |
| Cc1cccc(CN2C(=O)CC(c3ccc(Cl)cc3)c3c(C)nn(-c4nc(C)cc(C)n4)c32)c1 (centres undefined) | inconclusive: 20 µM [cytotoxic, partial curve, poor fit] | – |
| CCCCN(CCCC)CCNC(=O)CN1C(=O)CSc2ccc(S(=O)(=O)N3CCCCC3)cc21 | inconclusive: 20 µM [cytotoxic, partial curve, poor fit] | – |
| O=C(NCCc1ccccc1)C1c2ccccc2C(=O)N(Cc2ccccc2)C12CCCC2 (centres undefined) | – | inactive: -11.1% |
| CC(=O)NCCNC(=O)C1CCCN(S(=O)(=O)c2ccccc2)CCC(=O)NCC1 (centres undefined) | inconclusive: 8.91 µM [cytotoxic, single point] | – |
| COc1ccc(CNc2nc(-c3cccc(NS(C)(=O)=O)c3)nc3ccccc23)c(OC)c1 | inconclusive: 15.8 µM [cytotoxic, single point] | – |

Reference: PubChem BioAssay AID1671193 (National Center for Advancing Translational Sciences (NCATS), 2021)
